Data taken from the supplement of paper PMC10126150.
Sequences with one replicate were seen in a single cluster, so their values are uncertain.

Test system: ATP
Assay: switch fluorescence ratio, 500 uM ATP over buffer (Cy3 cluster intensity, sum of 5 cycles each) (fold (ratio)); higher = stronger signal-on switching upon ATP binding; sequences stand for … in TCGTCGGCAGCGTCAGATGTGTATAAGAGACAGTTTTTTTTTTTTTTTTTTTTTTTTT…TC
Settings: aptamer strand: ATP DNA aptamer (quencher-CACCTGGGGGAGTATTGCGGAGGAAGG + anchor), 100 nM annealed; ATP concentration: 500 uM; one replicate
In short: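 Switching-strand clusters labelled with Cy3 on a modified Illumina MiSeq flow-cell were annealed to 100 nM quencher-labelled ATP aptamer, imaged in selection buffer, and re-imaged after 15 min with 500 uM ATP at 22 °C. This was done over five cycles with NaOH stripping and re-annealing in between. The fluorescence ratio is summed target-cycle over summed buffer-cycle Cy3 intensity per cluster, averaged per switch-domain sequence, excluding clusters outside 100-1000 RFU.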
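Note: ATP exposure 15 min at 22 °C before imaging.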

Sequence	switch fluorescence ratio
AGGTTTAGAT	1.03
ACGTGTCGGA	1.02
AGAGATTTTA	1
GCAGTAAGCG	0.99
TGCAACTGAG	1.1
TCACTATGGA	1.04
TTCCCTAACG	0.997
GCAACTCATG	0.98
TTTCTTCGTC	1.04
CTTCAATCCA	0.987
ACAAACGCCG	1.02
GCAATTTTAC	1.54
ACTGTACTGA	1.48
AGTAATGCT	1.19
TCACGGTACG	1.02
TTCAGAGAGC	0.999
AGTGTAAGCA	1.03
TAAAGGATTT	0.981
TTAGTTTAGA	1.01
AGCGGCATTA	1.04
CTTGTGGAGA	1.01
TCATACCTGG	0.983
AGGACAGGAA	1.04

Sequence	switch fluorescence ratio
GTCAACATAG	1.02
AAAGGCATTT	1.34
TAGAGCTTCG	1.06
ATGCTGAGTT	1.03
GCCTACCCTT	0.996
TCGCTTTGAC	2.01
TTACTGCTCT	1.01
GCCGTGTAAA	1.02
TGGGGCACTC	0.967
TTTGCGCGCT	1
AACGCCAGAA	1.05
GTCAATATTG	1.01
GTACGCTAAT	1.51
AAACATCCTC	1.27
GTGGTCGCCG	1.03
GTTGGTTGAG	0.948
CTCAGGGTGG	0.959
CAGATACCTT	1.09
AGTTGAGCGT	0.987
TAGCGGGAAT	0.977
GTTGAGGCGA	0.996
AAAAAAAGAG	1.02
GAACGTAAAA	1.07

Sequence	switch fluorescence ratio
ATAATTTACA	1.02
TCTCACGCAC	2.38
TTGTTTAGTC	1.01
TGCTCGAGTC	0.987
ATTTTGAT	0.988
AAGATCCCGT	0.969
CTCTCAAGAT	1.27
CTATACAGT	0.992
TGGAGTGGTG	0.999
ATCACCGCTC	1.51
AGGGCGGGG	0.955
AACTTTAATG	1.01
ATCACAGATG	1
GACCCCCCA	1.4
GGCGATTGCC	0.964
GTGGGATTCA	1.01
TAAAGGCGT	1.03
CCACTTTAAA	1.06
TCCTATTTAT	1
AAATCGAAAT	3.67
GTGGAAAATG	0.963
GAGTTTAGTG	0.981
CGGACGACGA	1.07

Sequence	switch fluorescence ratio
GTTCATCTCG	1.02
AGCGGTAAA	1.03
ATGTAGATTA	1
GAGATCAGCA	0.986
TGAAGTTTCG	1
GGTGCAAATC	1.17
AAGCAGTATT	0.99
ATTTTCCGAC	1.53
GACGAAGGCG	1.03
AGTCGGGTAT	0.999
CGAAATAAGG	0.969
GTTACGTGCA	1.01
ATCCAGCGGA	0.997
TGTCGGATCA	1.02
ATTTAACCTT	1.04
TCAAACATGT	0.984
TTCTGTCCG	0.98
ATATATGCCT	0.979
TTTTTACAG	1.05
GCTGGTATCT	0.887
TCATTGTACT	1.04
ACTACCGTTT	1.06
TCCTAACGGT	1.03

Sequence	switch fluorescence ratio
GAAACATCAT	1.01
ACTGTACCTC	1.43
TACTGGCAAC	1.16
AGTTTACCCG	1.03
ACAAGTGGTT	1.03
GGTCGTTTGT	0.99
CTGGGGTCAT	1.01
ATTATCCTGC	1.02
GTGCATTATT	1.03
GGAGGAGCGG	0.988
TTTAGCATCC	1.96
TGCCCCTAGC	1.03
TCAAAACGCA	1.11
CACCTCATCA	1.05
CTAGGAGACT	1.06
AGCGACCAGG	1.06
GCGGTGTCCA	1.03
TTATTGCCCG	1.09
AGGGTTCCTC	1.09
AGCACGTCTT	0.995
CACGTGTTGT	0.962
CCAATATGGA	1.05
TGCGGACCGC	1.01

Sequence	switch fluorescence ratio
TTGGCCTGGC	1.04
GGGTTCATAT	1.01
AAAGGCTGTT	1.06
GGCCGTGACA	0.954
TCATGCTTCT	1.01
GAAGTCATAT	1
TTAATAATTG	1.01
CGAATGTTGT	0.929
CATTATGAG	0.985
AATAGGGATG	1.04
GGTTTAACTC	0.979
ATTGGGGTCT	1.07
ATAATGGTAC	1.07
TTATGCGGCC	1.05
CTTGATTATT	0.993
CCAAGTAAAC	2.84
AGGTAGTCAT	1.05
GGTAATCTAC	1.06
GGCATCAACT	1.07
TATGTCTGT	1.02
GGTGGGCTGT	1.03
CTAAGCTG	0.99
TGCGAATTGA	0.979

Sequence	switch fluorescence ratio
AGTTGGCACC	1.02
TCATTGCCAT	0.982
AGAACCTGCT	0.998
CCTGTGTTCT	0.97
GATCACATCC	0.975
AAACAGAAGG	1.01
TATTATGATG	1.02
AACTTAGTAA	1.04
ATACCCTCTT	1.05
CAATTCCGCC	1.17
AGGACATGCA	1.05
AGTTATTGG	1.04
TAGATCCGCT	1.17
CTGAGGTTGG	0.988
TCGAATAACG	0.989
AAGAAAAGTA	1.03
GAATCTTTTC	0.98
TGGAGGGTGA	1.02
TCCGTCACA	1.29
